Data reported in article PMC4336329 (PLoS ONE, 2015).
About 14,000 (4.5%) of roughly 310,000 compounds showed an effect of 50% or more. Effects have a minus sign here. This is one part of the list.

Target: human ether-à-go-go-related gene (hERG) potassium channel (human, UniProt Q12809)
Test: primary screen, population patch clamp on CHO cells stably expressing hERG
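Further: peak tail current of the secondary pulse compared with the same well before compound.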

human ether-à-go-go-related gene (hERG) potassium channel, sequence (Q12809 whole entry, looked up): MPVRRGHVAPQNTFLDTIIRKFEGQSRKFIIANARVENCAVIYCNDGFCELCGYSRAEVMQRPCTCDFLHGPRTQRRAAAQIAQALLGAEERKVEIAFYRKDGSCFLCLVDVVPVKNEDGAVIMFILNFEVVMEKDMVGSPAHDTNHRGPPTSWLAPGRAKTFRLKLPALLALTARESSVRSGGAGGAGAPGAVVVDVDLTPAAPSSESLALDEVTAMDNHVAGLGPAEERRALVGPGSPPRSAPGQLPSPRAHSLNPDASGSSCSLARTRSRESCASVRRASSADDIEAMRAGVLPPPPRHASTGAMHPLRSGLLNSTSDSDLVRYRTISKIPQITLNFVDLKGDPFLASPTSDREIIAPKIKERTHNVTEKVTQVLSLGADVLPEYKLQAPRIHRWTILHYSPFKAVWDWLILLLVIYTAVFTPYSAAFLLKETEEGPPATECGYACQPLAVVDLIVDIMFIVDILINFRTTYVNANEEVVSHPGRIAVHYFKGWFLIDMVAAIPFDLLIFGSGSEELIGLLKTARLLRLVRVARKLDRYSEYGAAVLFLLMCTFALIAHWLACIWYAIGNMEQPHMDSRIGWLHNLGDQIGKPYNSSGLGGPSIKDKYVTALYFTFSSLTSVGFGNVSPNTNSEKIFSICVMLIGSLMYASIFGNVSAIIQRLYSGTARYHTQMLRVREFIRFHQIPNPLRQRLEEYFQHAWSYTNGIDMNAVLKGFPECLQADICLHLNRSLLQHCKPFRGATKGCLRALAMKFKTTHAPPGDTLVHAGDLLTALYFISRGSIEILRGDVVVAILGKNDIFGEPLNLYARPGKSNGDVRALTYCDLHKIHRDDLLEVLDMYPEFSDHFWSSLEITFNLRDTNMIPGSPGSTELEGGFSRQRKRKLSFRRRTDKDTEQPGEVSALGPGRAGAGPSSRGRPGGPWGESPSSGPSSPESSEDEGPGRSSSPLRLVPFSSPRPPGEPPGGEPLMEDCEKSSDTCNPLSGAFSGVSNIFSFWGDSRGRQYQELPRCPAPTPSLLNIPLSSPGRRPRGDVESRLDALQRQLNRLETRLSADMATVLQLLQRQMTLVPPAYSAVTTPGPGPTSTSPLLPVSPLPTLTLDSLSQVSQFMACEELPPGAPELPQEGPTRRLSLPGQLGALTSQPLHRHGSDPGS

Row | SMILES | hERG current change (%, negative = inhibition) at 10uM
1 | Cn1c(SCC(N)=O)nnc1-c1ccc(C(C)(C)C)cc1 | 19.8%
2 | Cc1cc(SCc2cc(=O)n3ccsc3n2)nc2ccccc12 | -12.1%
3 | O=C(NCc1ccc(Cl)cc1)C1CCN(S(=O)(=O)c2cc([N+](=O)[O-])ccc2Cl)CC1 | -59%
4 | Cc1ccc(Cn2c(SC3CCOC3=O)nc3ccccc3c2=O)cc1 (stereo not shown) | -42.9%
5 | O=C(Nc1ccc(O)cc1)/C(=C\c1ccncc1)NC(=O)c1ccccc1 | 15.4%
6 | CCN(CC)S(=O)(=O)c1cccc(NC(=O)C(=O)c2c(-c3ccccc3)cc3ccccn23)c1 | 4.58%
7 | CCOCCCNC(=O)c1cc(-c2cccnc2)nc2ccc(S(=O)(=O)N3CCC(C)CC3)cc12 | 12.9%
8 | O=C(CN1CCN(c2ccc(F)cc2)CC1)Nc1ccccc1[N+](=O)[O-] | -22.7%
9 | Cc1ccccc1C(=O)OC1OC(=O)C(Cl)=C1Nc1ccc(C(=O)O)cc1 (stereo not shown) | 24.4%
10 | COc1ccc(N2CCN(C(=O)c3nc4nc(C)cc(C)n4n3)CC2)cc1 | 9.69%
11 | C=CCNS(=O)(=O)c1cccc2cc(C(=O)O)c(O)cc12 | 13.9%
12 | Cc1ccccc1C(=O)N/C(=C/c1ccc(-c2cccnc2Cl)o1)C(=O)NCCCN1CCN(C)CC1 | 8.09%
13 | CC(O)c1cc2c(cc1NC(=O)c1cnn3c1NC(c1ccco1)CC3C(F)(F)F)OCO2 (stereo not shown) | 15.3%
14 | O=C(NC1CCS(=O)(=O)C1)N1CCCCC1 (stereo not shown) | 13.2%
15 | Cc1c(Cl)cccc1NC(=S)N1CCCN(Cc2ccc(F)cc2)C1 | -16.3%
16 | O=C(O)Cc1ccc(NC(=S)Nc2cccc(Cl)c2Cl)cc1 | 7.8%
17 | CC(C)Cn1c(SCC(=O)Nc2cccc(S(N)(=O)=O)c2)nc2ccccc2c1=O | 5.27%
18 | CCOC(=O)c1sc(Nc2ccc(OCC)cc2)nc1C | 6.39%
19 | COc1ccc(NS(=O)(=O)c2cccc(C(=O)N3CCCCCCC3)c2)cc1 | -28.9%
20 | Cc1nc(-c2cccs2)sc1C(=O)O | 8.58%
21 | CCN(C(=O)c1ccc(S(=O)(=O)N2CCCCC2)cc1)C1CCS(=O)(=O)C1 (stereo not shown) | -16.1%
22 | CC(C)CCN1C(=O)c2ccc(C(=O)Nc3cc(C(=O)O)cc(C(=O)O)c3)cc2C1=O | -3.73%
23 | CCCCC(=O)Nc1cccc(-c2csc(-c3ccccc3)n2)c1 | 3.1%
24 | COc1ccc(C)cc1N(C(=O)c1ccc(C#N)cc1)C1=NC(C)(C)CS1 | 6.7%
25 | CS(=O)(=O)N(CCc1ccccc1)CC(=O)NCc1ccccc1 | 2.39%
26 | COc1ccccc1C(=O)O/N=C1/CCCc2c1ccc(OC)c2[N+](=O)[O-] | 1.18%
27 | COc1cc(NC(=O)c2ccccc2[N+](=O)[O-])c(C(=O)O)cc1OC | 20.1%
28 | O=S(=O)(c1ccccc1)N1CCC(=NO)CC1 | 11.1%

Row | SMILES | hERG current change (%, negative = inhibition) at 10uM
29 | O=C(O)c1sccc1S(=O)(=O)c1ccccc1 | -0.213%
30 | CCc1ccc(-c2nc(SCC(=O)N(CC)C3CCS(=O)(=O)C3)n[nH]2)cc1 (stereo not shown) | -8.29%
31 | CC(=O)OCC(=O)Nc1ccccc1OC(F)F | 14.4%
32 | COc1cc(OC)cc(C(=O)OCC(=O)NCc2ccco2)c1 | 2.94%
33 | CCc1nnc(NC(=O)CSc2nnc(-c3ccco3)n2CC)s1 | 13.7%
34 | CCOc1ccc(/C=C(\C#N)C(=O)Nc2ccccn2)cc1 | 6.14%
35 | Cc1nn(-c2cccc(C(F)(F)F)c2)c(Cl)c1/C=N/Nc1cccc(C(=O)O)c1 | 15.5%
36 | O=C(O)/C=C/C(=O)NCCC(c1ccccc1)c1ccccc1 | 17.1%
37 | N#C/C(=C\c1cccs1)C(=O)c1ccccc1 | 4.27%
38 | CC(C)(C)OC(=O)[C@H](CCCC[NH3+])NC(=O)c1nc[nH]c1C(=O)NCCCCC[NH3+].[Cl-] | 2.58%
39 | COc1ccc(OC)c(-c2csc(NC(=O)c3ccccc3F)n2)c1 | 12.6%
40 | O=C(CCl)Nc1cc2[nH]c(=O)[nH]c2cc1Br | 11.6%
41 | NS(=O)(=O)c1ccc(CCNc2nc(CN3CCOCC3)nc3sc4c(c23)CCC4)cc1 | -31.2%
42 | COc1cc(/C(C)=N/NC(=O)c2ccc(CSc3nncn3C)cc2)cc(OC)c1OC | 5.15%
43 | CC(C)c1ccc(-c2csc3nc[nH]c(=O)c23)cc1 | 10.8%
44 | COc1ccc(N(CC(=O)Nc2ccc3c(c2)OCO3)S(=O)(=O)c2ccccc2)cc1 | 5.21%
45 | O=C(CCc1nnc(Cc2ccc3c(c2)OCO3)o1)NCCc1ccccc1Cl | -6.86%
46 | COc1ccc(Oc2nc(-c3cccnc3)nc3ccccc23)cc1 | 2.76%
47 | CCCCc1nnc(NC(=O)C2CCN(c3ncnc4sc(C)c(C)c34)CC2)s1 | 16.6%
48 | O=C(c1cc2cc(Br)ccc2o1)N1CCN(c2ccccc2)CC1 | 13.7%
49 | O=C(NCCCn1ccnc1)C(=O)NCC1OCCN1S(=O)(=O)c1ccc(Br)cc1 (stereo not shown) | -6.31%
50 | O=C(O)C1CCN(c2ccccc2[N+](=O)[O-])CC1 | 3.84%
51 | COc1ccc2c(c1)CCc1c(C(=O)NCCc3ccc(OC)c(OC)c3)noc1-2 | 4.59%
52 | CSc1ccc(S(=O)(=O)NCCCn2ccnc2)cc1 | -16.6%
53 | COc1ccc(C(=O)NC(C)Cc2cnccn2)cc1OC1CCN(C(C)C)CC1 (stereo not shown) | 18.4%
54 | O=c1cc(/N=C/c2coc3c(ccc4ccccc43)c2=O)[nH]c(=S)[nH]1 | 11%
55 | O=[N+]([O-])c1cccc(CN(CCO)Cc2ccccc2)c1 | -12.6%
